Measured values taken from publication PMC4336329 (PLoS ONE, 2015).
The campaign covered roughly 310,000 compounds. About 2,200 (0.71%) showed an effect of 50% or more. The effect is printed as a negative number. This is one part of the list.

target: human ether-à-go-go-related gene (hERG) potassium channel (human, UniProt Q12809); assay: primary screen, population patch clamp on CHO cells stably expressing hERG
Sequence (Q12809 whole entry, looked up): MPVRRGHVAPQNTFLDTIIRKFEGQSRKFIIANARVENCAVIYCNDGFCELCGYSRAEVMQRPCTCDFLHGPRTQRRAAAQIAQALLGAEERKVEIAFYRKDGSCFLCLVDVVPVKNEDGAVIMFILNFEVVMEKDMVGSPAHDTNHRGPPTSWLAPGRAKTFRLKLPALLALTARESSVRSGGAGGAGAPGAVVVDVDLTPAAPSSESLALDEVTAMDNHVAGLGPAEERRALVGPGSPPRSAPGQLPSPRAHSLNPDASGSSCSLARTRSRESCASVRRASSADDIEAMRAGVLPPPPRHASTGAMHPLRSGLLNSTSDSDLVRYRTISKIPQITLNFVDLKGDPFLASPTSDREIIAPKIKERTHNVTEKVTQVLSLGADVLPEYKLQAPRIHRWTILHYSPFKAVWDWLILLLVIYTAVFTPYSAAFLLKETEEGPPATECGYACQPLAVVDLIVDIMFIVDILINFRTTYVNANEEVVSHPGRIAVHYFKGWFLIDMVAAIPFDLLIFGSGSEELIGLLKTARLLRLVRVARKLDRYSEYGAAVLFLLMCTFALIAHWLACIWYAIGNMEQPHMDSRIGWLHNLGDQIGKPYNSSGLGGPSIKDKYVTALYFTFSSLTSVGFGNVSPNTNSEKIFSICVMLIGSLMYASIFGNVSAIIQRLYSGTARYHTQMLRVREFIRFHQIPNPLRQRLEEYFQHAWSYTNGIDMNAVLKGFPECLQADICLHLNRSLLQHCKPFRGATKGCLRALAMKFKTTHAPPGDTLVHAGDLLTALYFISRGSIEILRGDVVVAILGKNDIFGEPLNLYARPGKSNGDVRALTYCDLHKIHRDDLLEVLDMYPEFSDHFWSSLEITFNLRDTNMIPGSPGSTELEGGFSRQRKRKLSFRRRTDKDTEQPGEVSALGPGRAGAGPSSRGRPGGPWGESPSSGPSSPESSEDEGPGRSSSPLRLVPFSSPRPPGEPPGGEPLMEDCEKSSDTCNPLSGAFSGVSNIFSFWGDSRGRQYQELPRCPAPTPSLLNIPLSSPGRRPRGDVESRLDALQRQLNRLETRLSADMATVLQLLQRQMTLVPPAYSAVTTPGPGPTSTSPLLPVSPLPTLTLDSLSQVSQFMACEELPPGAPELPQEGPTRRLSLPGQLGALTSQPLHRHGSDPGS

Row | SMILES | hERG current change (%, negative = inhibition) at 1uM
1 | CC(=O)c1ccc(N2CCN(C(=O)/C=C/c3ccc4ccccc4n3)CC2)cc1 | -10.8%
2 | CC(=O)c1cccc(NC(=O)C2CCN(S(=O)(=O)c3ccccc3)CC2)c1 | 17.1%
3 | Cc1ccc(N2CC(O)=C(c3ccccc3)C2=N)cc1 | 5.14%
4 | CCCN(CCC)C(=O)Cc1ccc(F)cc1 | 14.4%
5 | CCOc1ccc(NC(=O)CN(C)C(=O)c2csc3c2CCCC3)cc1OCC | 5.23%
6 | Cn1ccnc1C(=O)c1cc(SCC(=O)NCc2ccccc2)nc2ccccc12 | 9.83%
7 | O=C(NNC(=O)C1CCN(c2ncccn2)CC1)c1ccncc1 | 11.3%
8 | O=C(/C=C/c1ccc(Cl)cc1Cl)N(Cc1ccccc1)C1CCS(=O)(=O)C1 (centres unmarked) | 4.57%
9 | O=C(/C=C/Nc1ccccc1Br)c1ccccn1 | -8.06%
10 | CC(=O)Nc1ccc(N=Cc2nc(-c3ccc(C)cc3)oc2O)cc1 | 1.06%
11 | C=CCc1ccc(OCC(O)CN2CCCCC2)c(OC)c1 (centres unmarked) | -16.5%
12 | O=C(CN1C(=O)CCS(=O)(=O)c2ccccc21)NCCc1ccccc1 | 11.5%
13 | CCOC(=O)CN1C(=O)/C(=C/c2ccc(Cl)cc2)Oc2ccccc21 | 10%
14 | CCS(=O)(=O)c1ccc(O)c(NC(=O)NC2CCCCC2)c1 | 14%
15 | COC(=O)c1ccc2[nH]c([C@H](C)O)c([C@H](C)O)c2c1 | 6.01%
16 | CC(CN1CCOCC1)C(=O)O.Cl (centres unmarked) | -5.33%
17 | O=C(c1cnccn1)N(Cc1cccs1)C1(C(=O)NC2CCCCC2)CCCCC1 | -8.69%
18 | C/C(=N\NC(=O)c1cccc(N/N=C(\C)c2ccccc2)c1)c1ccccc1 | 2.46%
19 | CC(=O)Nc1cccc(NC(=O)c2cc([N+](=O)[O-])ccc2N2CCCCC2)c1 | 2.94%
20 | COc1ccc2cc(C(=O)N3CCN(c4ccc(F)cc4)CC3)[nH]c2c1 | 9.32%
21 | CCN(CC)S(=O)(=O)c1cccc(C(=O)Oc2cccc(NC(=O)c3cccs3)c2)c1 | 7.05%
22 | COc1cc(NC(=O)c2cc3sccc3n2C)cc(OC)c1 | -2.3%

Row | SMILES | hERG current change (%, negative = inhibition) at 1uM
23 | CCN(CC)c1ccc(/C=N/NC(=O)CNC(=O)c2ccccn2)cc1 | -7.85%
24 | O=C(NCC(=O)N(Cc1ccco1)C(C(=O)NC1CCCCC1)c1cccnc1)c1cccs1 (centres unmarked) | 0.518%
25 | COc1ccc(Cl)cc1NC(=O)CSc1nnc(CNC(=O)c2ccco2)o1 | -4.59%
26 | O=C(OC1CCOC1=O)C1CCN(S(=O)(=O)c2ccc(Cl)c(C(F)(F)F)c2)CC1 (centres unmarked) | 13.1%
27 | Cc1ccc(C(=O)NCC(=O)NC2CCC(C)CC2)s1 (centres unmarked) | 16.3%
28 | Cn1nnc(NC(=S)NC(=O)c2ccco2)n1 | 14.3%
29 | CCc1cccc(NC(=O)CNC(=O)N2CC(=O)Nc3ccccc32)c1 | -0.0846%
30 | Cc1cc(C(=O)O[C@H]2[C@H](C)NS(=O)(=O)[C@H]3C[C@@H]4C=C[C@]23O4)cc([N+](=O)[O-])c1 | 9.78%
31 | O=C(N/C(=C/c1ccco1)C(=O)N1CCCC1)c1cccs1 | 10.1%
32 | CC(NC(=O)c1ccc(C(F)(F)F)cc1)C(c1ccccc1)N1CCOCC1 (centres unmarked) | 3.26%
33 | COc1ccc(C(=O)OCC(=O)NCCCc2ccccc2)cc1OC | 10.3%
34 | Cn1cc(S(=O)(=O)N2CCCC2)cc1C(=O)NCc1ccc(Cl)cc1 | 4.72%
35 | NS(=O)(=O)c1ccc(CNC(=O)CNC(=O)c2ccc(Br)o2)cc1 | 19.7%
36 | Cc1[nH][nH]c(=O)c1C(c1ccccc1[N+](=O)[O-])C(C#N)C#N (centres unmarked) | 16%
37 | O=C(CCc1ccc(S(=O)(=O)N2CCOCC2)cc1)NCCCN1CCCC1=O | 8.23%
38 | CC(C)Cn1c(SCC(=O)NCCCN2CCCC2=O)nc2ccccc21 | 19.8%
39 | COc1ccc2c(c1)N(C(=O)CN1C(=O)C3CCCCC3C1=O)C(C)(C)C=C2C (centres unmarked) | 13.1%
40 | O=C(Cn1ncc2c(=O)oc3ccccc3c21)NCCC1=CCCCC1 | 13.2%
41 | O=C(NC(=O)c1ccccc1)C1=C(N2CCCC2)COC1=O | 9.76%
42 | COC(=O)c1ccc(S(=O)(=O)NNC(=O)COc2ccc(C)cc2)cc1 | 14%
43 | CSc1ccccc1NC(=O)CSCc1ccccc1Br | 11.2%
44 | CN(C)c1ccc(/C=N/NC(=O)c2nnn(-c3nonc3N)c2COc2ccc(F)cc2)cc1 | 12.3%
